The supplement of paper PMC10126150
Sequences with one replicate were seen in a single cluster, so their values are uncertain.

Tested on: ATP
Test: switch fluorescence ratio, 500 uM ATP over buffer (Cy3 cluster intensity, sum of 5 cycles each) (fold (ratio)); higher = stronger signal-on switching upon ATP binding; sequences stand for … in TCGTCGGCAGCGTCAGATGTGTATAAGAGACAGTTTTTTTTTTTTTTTTTTTTTTTTT…TC
Details: aptamer strand: ATP DNA aptamer (quencher-CACCTGGGGGAGTATTGCGGAGGAAGG + anchor), 100 nM annealed; ATP concentration: 500 uM; one replicate
Procedure, shortened: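 Between each of five buffer/ATP cycles, the flow-cell was stripped with NaOH and re-annealed. Each cycle imaged Cy3-labelled switching-strand clusters, annealed to 100 nM quencher-labelled ATP aptamer on a modified Illumina MiSeq flow-cell, first in selection buffer and then after 15 min with 500 uM ATP at 22 °C. The fluorescence ratio is summed target-cycle over summed buffer-cycle Cy3 intensity per cluster, averaged per switch-domain sequence, with clusters outside 100-1000 RFU excluded.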
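Note: ATP exposure 15 min at 22 °C before imaging.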

ATTAATCCCA
switch fluorescence ratio: 1.03

ACCTGGTAGC
switch fluorescence ratio: 1.06

ATGCGAACGG
switch fluorescence ratio: 0.965

CTTTGAC
switch fluorescence ratio: 0.988

ACTGGTGGGG
switch fluorescence ratio: 1.03

CGTTAACGCT
switch fluorescence ratio: 1.01

TACGAGGGCG
switch fluorescence ratio: 1.01

CTCATAAGTA
switch fluorescence ratio: 1.01

AGTAAGAAAG
switch fluorescence ratio: 1.01

GGCTAAAGC
switch fluorescence ratio: 1.03

ATTAAGACGA
switch fluorescence ratio: 0.983

GGTAGGCAAA
switch fluorescence ratio: 1.02

ATATTAACCC
switch fluorescence ratio: 1.07

GGCAGTACAC
switch fluorescence ratio: 1.22

ATCTCTACCT
switch fluorescence ratio: 1.24

CGATTCCGCA
switch fluorescence ratio: 3.02

AAAGAGAACA
switch fluorescence ratio: 1.03

TGCGTGTTGG
switch fluorescence ratio: 1.01

GAAGGAGAGA
switch fluorescence ratio: 1.18

CTACATGGTT
switch fluorescence ratio: 1.03

TTTCCGGTAA
switch fluorescence ratio: 5.45

CAACCGGCGC
switch fluorescence ratio: 1.16

GGTGCAATCG
switch fluorescence ratio: 1.09

AAGAAAACG
switch fluorescence ratio: 1.01

GTGTACGGTA
switch fluorescence ratio: 1.1

CCAGATCGGA
switch fluorescence ratio: 1

AAAGATTAGA
switch fluorescence ratio: 0.937

GACCTATT
switch fluorescence ratio: 1

CGTGCGGCGG
switch fluorescence ratio: 0.982

AGGGACACCT
switch fluorescence ratio: 1.04

CCCAGGCATA
switch fluorescence ratio: 2.13

TTACAGTTTA
switch fluorescence ratio: 1.03

TTCGTTACT
switch fluorescence ratio: 1.01

CGCCGCAGGA
switch fluorescence ratio: 4.1

TTACAAGT
switch fluorescence ratio: 0.975

ATAAGCTGAG
switch fluorescence ratio: 0.978

GCGTATTTAT
switch fluorescence ratio: 1

TCTGGATCTA
switch fluorescence ratio: 1.03

GAGGTTATCT
switch fluorescence ratio: 1.04

ATGCTAACGC
switch fluorescence ratio: 1.07

TACTGGGATC
switch fluorescence ratio: 1

CCACGAATGG
switch fluorescence ratio: 1.03

TCTGCCTGGG
switch fluorescence ratio: 0.998

GGATGTGCAT
switch fluorescence ratio: 0.956

GCTAAAGATT
switch fluorescence ratio: 0.961

GTTGTGCACG
switch fluorescence ratio: 0.988

CTACACTCTC
switch fluorescence ratio: 1.03

CATCTGGGAG
switch fluorescence ratio: 1

CTGCGCGACT
switch fluorescence ratio: 1.3

TATGTCGCAA
switch fluorescence ratio: 1.85

TTCTACAGTT
switch fluorescence ratio: 1.01

AGGCACGCGG
switch fluorescence ratio: 1.02

AAAGCGATA
switch fluorescence ratio: 1.24

CTTGTAAACG
switch fluorescence ratio: 0.985

GTCAGAAGTA
switch fluorescence ratio: 1.02

TTGCGGTCAG
switch fluorescence ratio: 1.03

AGAAAACTGA
switch fluorescence ratio: 1.04

TCCGTGTGCG
switch fluorescence ratio: 0.985

CTATTCCGTC
switch fluorescence ratio: 1.03

CTTAGTG
switch fluorescence ratio: 0.971

TCGGGTCAGC
switch fluorescence ratio: 1.1

AAGTTGCGAG
switch fluorescence ratio: 1.02

AGTTCCATGA
switch fluorescence ratio: 0.986

TGTAATACTA
switch fluorescence ratio: 1.16

TATTGGGAC
switch fluorescence ratio: 0.963

CCAACCTTTC
switch fluorescence ratio: 1.02

CCTCGATAGT
switch fluorescence ratio: 1.28

GAAGGTCAGG
switch fluorescence ratio: 0.958

AAGATATCTC
switch fluorescence ratio: 0.979

CCTGGGAATA
switch fluorescence ratio: 1.09

CGTTTAGAGC
switch fluorescence ratio: 1.02

CGAGGCGCA
switch fluorescence ratio: 0.972

ACTAACGGAA
switch fluorescence ratio: 1.07

TTTATGTGCT
switch fluorescence ratio: 1.01

GACCTCTCCT
switch fluorescence ratio: 1.8

TTATAAGGGC
switch fluorescence ratio: 1.04

TTAGGTACCT
switch fluorescence ratio: 0.994

GGACAGGAGA
switch fluorescence ratio: 1.02

GGAACCTTAT
switch fluorescence ratio: 1.11

CTGAGTGGGT
switch fluorescence ratio: 0.999

CGCACTGGCC
switch fluorescence ratio: 1.14

TCTAGTTAAG
switch fluorescence ratio: 0.999

TAATCATTTG
switch fluorescence ratio: 0.99

CTCAAAGAT
switch fluorescence ratio: 0.967

ACGATGTCGA
switch fluorescence ratio: 1

CAGGACTAAG
switch fluorescence ratio: 1.04

CGCATGCGGA
switch fluorescence ratio: 1.01

TAAAGTGGGG
switch fluorescence ratio: 1.02

CGTGTCTACA
switch fluorescence ratio: 0.988

GCTTTTTACG
switch fluorescence ratio: 0.993

GATTTGTTAA
switch fluorescence ratio: 1.04

AAACCATGTT
switch fluorescence ratio: 1.04

CACTGTTCCC
switch fluorescence ratio: 1.04

GGGCCGACCC
switch fluorescence ratio: 1.01

CCGGAGTCGG
switch fluorescence ratio: 1.86

CGAAAAGGGT
switch fluorescence ratio: 0.965

GGTCACGGCT
switch fluorescence ratio: 0.962

CGGGACTTCG
switch fluorescence ratio: 1.01

ATCGGTTATG
switch fluorescence ratio: 0.989

CAACTAGTAA
switch fluorescence ratio: 1.03

GTTTAACTGA
switch fluorescence ratio: 1.01

TTCGGTGGT
switch fluorescence ratio: 1.26

GATCCTATAG
switch fluorescence ratio: 1

TATCCTGCGC
switch fluorescence ratio: 1.81

CATGCGGGTA
switch fluorescence ratio: 0.998

TGAAAACGAT
switch fluorescence ratio: 1.02

TCGGTAATTG
switch fluorescence ratio: 1.01

AATCGTTGTT
switch fluorescence ratio: 0.966

TCTAATGCAC
switch fluorescence ratio: 1.08

ATACGTACTC
switch fluorescence ratio: 1.62

TTTGTTAATC
switch fluorescence ratio: 0.969

GGTGCCGTAA
switch fluorescence ratio: 1.03

GCCGGATAGT
switch fluorescence ratio: 1.01

GCTACTTGTT
switch fluorescence ratio: 1.02

AAAGGGCTTA
switch fluorescence ratio: 0.991

ACAGGTGTTG
switch fluorescence ratio: 1.27

AACCAAGAAT
switch fluorescence ratio: 1.06

CTTACTCCAT
switch fluorescence ratio: 1.47

TGCCTGCCGA
switch fluorescence ratio: 1.15

AGGTCCGCTC
switch fluorescence ratio: 1.55

AGTTCGACTT
switch fluorescence ratio: 0.956

GATAGTTTCA
switch fluorescence ratio: 0.982

GAGTAGTGGT
switch fluorescence ratio: 0.978

AAGATGTTA
switch fluorescence ratio: 1.03

GGAATCCTCT
switch fluorescence ratio: 1.02

CATCAGGTAC
switch fluorescence ratio: 1.39

TCACGGATC
switch fluorescence ratio: 1.05

TCATAACGAT
switch fluorescence ratio: 0.954

GGGTGTTCAG
switch fluorescence ratio: 0.965

TTCACAGAGA
switch fluorescence ratio: 1.03

AGGCTGGTCG
switch fluorescence ratio: 0.9

CCCGAGTTGA
switch fluorescence ratio: 1.08

GGTGTCATCT
switch fluorescence ratio: 0.996

TGGGATGAAT
switch fluorescence ratio: 0.975

AGAGGAATAG
switch fluorescence ratio: 1.15

TCAGGGCAGG
switch fluorescence ratio: 1.12

TTACGGATA
switch fluorescence ratio: 1.02

GATATACCGA
switch fluorescence ratio: 1.11

TCACTGCACA
switch fluorescence ratio: 1.55

TATGTCATGA
switch fluorescence ratio: 1.01

GAAGCATGAG
switch fluorescence ratio: 1.24

CCAACTCAAG
switch fluorescence ratio: 1.18

TCCTATAGGG
switch fluorescence ratio: 1.03

CAGGAAAAGT
switch fluorescence ratio: 1.01

CTTGTATCAT
switch fluorescence ratio: 0.996

GACTCGGAGT
switch fluorescence ratio: 0.998

CACTGAGGTA
switch fluorescence ratio: 0.985

GGTCGGCT
switch fluorescence ratio: 0.985

TGATTGCTAA
switch fluorescence ratio: 1.02

AGCGTTTTTA
switch fluorescence ratio: 0.985

CTGTACGGCT
switch fluorescence ratio: 1.01

CTATGCTGAA
switch fluorescence ratio: 0.947

TCACAACATT
switch fluorescence ratio: 1.07

GTCAAACGAT
switch fluorescence ratio: 1.02

TATCCAATTT
switch fluorescence ratio: 1.01

AAGTAACTTG
switch fluorescence ratio: 0.997

GCACGGAACC
switch fluorescence ratio: 1.28

GTTTGTAGTC
switch fluorescence ratio: 1.02
